Sequences with one replicate were seen in a single cluster, so their values are uncertain.
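Also: ATP exposure 15 min at 22 °C before imaging.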

The data set concerns ATP. Kind of data set: switch fluorescence ratio, 500 uM ATP over buffer (Cy3 cluster intensity, sum of 5 cycles each) (fold (ratio)); higher = stronger signal-on switching upon ATP binding; sequences stand for … in TCGTCGGCAGCGTCAGATGTGTATAAGAGACAGTTTTTTTTTTTTTTTTTTTTTTTTT…TC. As to conditions: aptamer strand: ATP DNA aptamer (quencher-CACCTGGGGGAGTATTGCGGAGGAAGG + anchor), 100 nM annealed; ATP concentration: 500 uM; one replicate. The gist of the method:
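Values give the fluorescence ratio for each switch-domain sequence, averaged from per-cluster ratios of summed target-cycle to summed buffer-cycle Cy3 intensity. The Cy3-labelled switching-strand clusters sat on a modified Illumina MiSeq flow-cell, were annealed to 100 nM quencher-labelled ATP aptamer, and were imaged in selection buffer, then after 15 min with 500 uM ATP at 22 °C. Five cycles ran with NaOH stripping and re-annealing between them, and clusters outside 100-1000 RFU were excluded.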
In the case of TTGTCGACAT, the switch fluorescence ratio came out at 1.

Turning to GACTTCCGA, the switch fluorescence ratio worked out at 1.99.

CGGCCGAGGC: the switch fluorescence ratio was determined as 1.06.

Consider TACTATAGTA, for which the switch fluorescence ratio was found to be 0.997.

Take GCCATCCTC: the switch fluorescence ratio came out at 1.22.

AACTATAGGG: the switch fluorescence ratio worked out at 0.991.

Take AGTCCACACG: the switch fluorescence ratio was determined as 1.03.

As for TCGTGCTTGC, the switch fluorescence ratio came out at 0.956.

As for GGCGATTAAG, the switch fluorescence ratio is 1.05.

Consider CGGAGCTGCG, for which the switch fluorescence ratio amounted to 1.27.

GTTCGACCAT: the switch fluorescence ratio came out at 1.02.

In the case of CTCACACCAG, the switch fluorescence ratio came out at 1.15.

Consider TATGAGTGTG, for which the switch fluorescence ratio turned out to be 0.964.

Take AGTTCGCTTA: the switch fluorescence ratio is 1.

ACTGAGTAGT: the switch fluorescence ratio was determined as 0.988.

As to GGGTCCTTAT, the switch fluorescence ratio turned out to be 0.968.

As for AAGAATAACG, the switch fluorescence ratio amounted to 1.

As for ATGGGGACGA, the switch fluorescence ratio came out at 1.

On to GCTTATATAA, for which the switch fluorescence ratio stood at 0.994.

As for TATACGTAGG, the switch fluorescence ratio turned out to be 1.04.

On to CGGGTCGGG, for which the switch fluorescence ratio turned out to be 0.956.

Consider AGTGGTGTAT, for which the switch fluorescence ratio was determined as 0.996.

Regarding ACCAGCGCAT, the switch fluorescence ratio amounted to 1.47.

As to ATAGGTGCG, the switch fluorescence ratio was 1.

AGCACCGATT: the switch fluorescence ratio was 1.01.

For the sequence TTGGAGTTGC, the switch fluorescence ratio amounted to 0.969.

Consider TGTAATATAA, for which the switch fluorescence ratio was found to be 0.963.

With CGGCTGTAGC, the switch fluorescence ratio is 0.981.

In the case of TGTTGGCATC, the switch fluorescence ratio is 1.41.

TTAAACTATG: the switch fluorescence ratio was 1.07.

Consider AGTGATAGTT, for which the switch fluorescence ratio was 0.99.

Consider CAAGCATTCC, for which the switch fluorescence ratio came out at 1.41.

Turning to ATCGCTTTCA, the switch fluorescence ratio is 0.987.

Consider GCCGTCGAAT, for which the switch fluorescence ratio amounted to 1.02.

On to CGCACTTAA, for which the switch fluorescence ratio is 3.17.

TACGTCTGTT: the switch fluorescence ratio worked out at 1.02.

Consider AACGACCGAG, for which the switch fluorescence ratio was determined as 1.1.

AGGCTCCTAC: the switch fluorescence ratio was 1.12.

Consider ATATGTTCGG, for which the switch fluorescence ratio was 1.01.

As for CTGAAGTCCC, the switch fluorescence ratio came out at 1.03.

In the case of CGGAGTAAGG, the switch fluorescence ratio was 1.78.

Take TCTCTTCGGT: the switch fluorescence ratio turned out to be 0.975.

Regarding CAAAGTCCT, the switch fluorescence ratio worked out at 1.05.

As for GGGACCCCG, the switch fluorescence ratio was 1.04.

Turning to CCCTGACGAT, the switch fluorescence ratio turned out to be 2.17.

As for ACTAGGATTA, the switch fluorescence ratio worked out at 1.

As to TACCTCGTG, the switch fluorescence ratio came to 0.986.

In the case of CACTCCTAGC, the switch fluorescence ratio stood at 1.13.

For the sequence AACAACGCCT, the switch fluorescence ratio stood at 1.09.

Consider GCTAAATCCC, for which the switch fluorescence ratio worked out at 1.08.

Consider CATTGAACTT, for which the switch fluorescence ratio amounted to 1.01.

Regarding TCCGCCTGCA, the switch fluorescence ratio amounted to 4.37.

As to GGAGTTTGTC, the switch fluorescence ratio stood at 0.943.

As for AAGGGCATTC, the switch fluorescence ratio was 0.971.

Turning to TCGTGAGAGT, the switch fluorescence ratio was 1.04.

Take GTTCAACGAC: the switch fluorescence ratio came to 0.993.

For ACTTATGCGC, the switch fluorescence ratio was 1.02.

GCACCAGTCG: the switch fluorescence ratio turned out to be 1.06.

On to CACCAGTG, for which the switch fluorescence ratio was found to be 4.38.

Turning to GCTCCGGCCG, the switch fluorescence ratio was 1.29.

As to ACAGAGTATA, the switch fluorescence ratio was 1.01.

For the sequence TGTAGACCAC, the switch fluorescence ratio is 1.05.

GTAAGACAAA: the switch fluorescence ratio is 1.

For the sequence TGAAGGTGCA, the switch fluorescence ratio amounted to 0.961.

GTAACTAGTG: the switch fluorescence ratio came to 0.976.

For the sequence AGCTAGTATA, the switch fluorescence ratio was found to be 1.02.

As for TGTAGAAGAT, the switch fluorescence ratio was determined as 0.993.

For the sequence AGTAGCTTGC, the switch fluorescence ratio amounted to 1.03.

As to AGTTTCGAGT, the switch fluorescence ratio is 1.01.

As to GCTTCTGTCC, the switch fluorescence ratio was found to be 1.03.

For the sequence GCAGTTCTC, the switch fluorescence ratio amounted to 1.09.

For the sequence CACTTTTAGT, the switch fluorescence ratio was found to be 0.99.

Consider AGACCTCATG, for which the switch fluorescence ratio turned out to be 1.

Regarding AATTCGATAT, the switch fluorescence ratio was 0.986.

For the sequence TAATTAGCGA, the switch fluorescence ratio was 1.07.

Take CAATGAATGT: the switch fluorescence ratio is 0.967.

CAGTACGGGA: the switch fluorescence ratio is 1.05.

As for AAGTTTTACG, the switch fluorescence ratio amounted to 0.951.

For GAAGCCAGTG, the switch fluorescence ratio is 1.08.

For the sequence TTACAAACCC, the switch fluorescence ratio worked out at 1.16.

In the case of CTGGACTATG, the switch fluorescence ratio was found to be 0.978.

In the case of AATGAGAGCC, the switch fluorescence ratio was 0.977.

As to CGGGAGGGTA, the switch fluorescence ratio is 1.02.

For TCGAAGGACC, the switch fluorescence ratio came out at 1.05.

For GGTAGTAGTT, the switch fluorescence ratio is 0.989.

In the case of TGATGCGAA, the switch fluorescence ratio came out at 1.22.

With GGTTCCAGTA, the switch fluorescence ratio is 1.01.

In the case of TTCCAGATTA, the switch fluorescence ratio came to 1.03.

Take GGACACCCGC: the switch fluorescence ratio was found to be 1.11.

In the case of AAATCGGCTG, the switch fluorescence ratio came to 0.978.

As to ACGGTTTGGG, the switch fluorescence ratio worked out at 1.01.

For the sequence GATTGCTCGG, the switch fluorescence ratio worked out at 0.956.

As for CAGAAGTCG, the switch fluorescence ratio came to 0.988.

In the case of TCGTCGTCTG, the switch fluorescence ratio worked out at 1.07.

As to GGCTGAAATG, the switch fluorescence ratio was determined as 0.998.

For GGTTCGCTTA, the switch fluorescence ratio was 1.06.

As for CAGTTATCTT, the switch fluorescence ratio stood at 0.969.

GTCACGGGA: the switch fluorescence ratio is 1.04.

Take CCCCTCGAGT: the switch fluorescence ratio amounted to 1.

As to GGGTTGGTAC, the switch fluorescence ratio amounted to 1.03.

GGTGCGGTA: the switch fluorescence ratio was determined as 0.989.

For ACCCGACCTG, the switch fluorescence ratio is 1.02.

On to GAAGCATTAG, for which the switch fluorescence ratio was 3.14.

Turning to CTATTCCG, the switch fluorescence ratio was 1.01.

On to ATACTAGTCG, for which the switch fluorescence ratio is 1.08.

As for CGATCAGGCG, the switch fluorescence ratio was 1.01.

Consider GGGACGTCTA, for which the switch fluorescence ratio came to 1.03.

On to TATCGCTACG, for which the switch fluorescence ratio came out at 0.974.

Take TAAAGGAGCG: the switch fluorescence ratio turned out to be 1.01.

As for AATCCATGTC, the switch fluorescence ratio was determined as 1.18.

In the case of ATTTATACT, the switch fluorescence ratio was 0.976.

As to ACTTTGATCA, the switch fluorescence ratio came out at 0.999.

GCGAGCGGTC: the switch fluorescence ratio is 1.07.

Turning to GGTGCATCTC, the switch fluorescence ratio stood at 1.04.

GGTTATGTCG: the switch fluorescence ratio stood at 0.96.

For the sequence CCACTAGGAT, the switch fluorescence ratio was 1.02.

With CTCTATCCTA, the switch fluorescence ratio was determined as 0.973.

Consider CGGTAGAC, for which the switch fluorescence ratio stood at 1.11.

On to AGCATCTATT, for which the switch fluorescence ratio amounted to 0.999.

For GGCTAACATG, the switch fluorescence ratio came out at 1.04.

Source of the values: the supplement of paper PMC10126150.
